Measurements from PubChem BioAssay AID1476 (National Center for Advancing Translational Sciences (NCATS), 2009).
Several values for one entry are separate records, joined by “and”; a condition that tells them apart may be missing. Identical values can stand only once. In all, about 200,000 compounds went through this assay and about 4,500 (2.2%) were called active. The inconclusive results got no clear call from the source; some entries with a clear call stand among them for comparison. The call rests on the fitted dose curve; in most records, active means well fitted inhibition curve with a large enough effect; inconclusive means small, poorly fitted or top-dose-only effect, or effect the other way; inactive means flat fitted curve, though single readings scatter. A potency beside an inconclusive call is a rough fit, not a confirmed value.
Further: nearly all actives have a fitted effect of over 40% in size.
Potency means the concentration at half of the fitted maximal effect; tags describe the fitted curve by direction and shape.
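Wherever max response, negative = inhibition is given: plate controls were enzyme without inhibitor for no effect and buffer without enzyme for full effect.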

Each molecule was assayed against Cruzipain (Trypanosoma cruzi) (UniProt P25779) (assay: qHTS Assay for Promiscuous and Specific Inhibitors of Cruzain (without detergent)). Conditions: purified cruzain, Z-FR-AMC fluorescence, no detergent.
Sequence of UniProt P25779 (P25779 whole entry, looked up): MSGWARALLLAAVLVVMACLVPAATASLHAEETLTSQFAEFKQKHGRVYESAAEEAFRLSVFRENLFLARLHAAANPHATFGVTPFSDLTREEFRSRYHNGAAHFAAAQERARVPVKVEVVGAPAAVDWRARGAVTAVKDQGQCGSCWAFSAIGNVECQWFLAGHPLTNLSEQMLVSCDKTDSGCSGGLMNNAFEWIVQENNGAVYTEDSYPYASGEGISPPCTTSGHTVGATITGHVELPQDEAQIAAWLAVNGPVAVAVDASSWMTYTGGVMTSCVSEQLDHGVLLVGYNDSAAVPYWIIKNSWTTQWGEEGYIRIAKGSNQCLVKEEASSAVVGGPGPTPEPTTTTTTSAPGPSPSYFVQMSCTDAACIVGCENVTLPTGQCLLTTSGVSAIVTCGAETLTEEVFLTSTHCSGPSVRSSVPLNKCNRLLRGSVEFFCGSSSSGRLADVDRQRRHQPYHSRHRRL
Method in brief: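 Detergent-free condition (0.00005% Triton X-100) in acetate buffer pH 5.5 with DTT. 1.5 nM enzyme and compound were pre-mixed 15 min, then 2 uM Z-FR-AMC substrate added; reaction progress from fluorescence change between first and third reads (60 s).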
`O=C(CSc1nc2ccccc2c(=O)[nH]1)c1cccs1` was tested, and the Potency was inconclusive: 31.6 µM [inhibitor, single point]. In the case of `COC(=O)[C@@H]1C[C@]2(OC(=O)c3ccccc3)C=CC(=O)C[C@@H]2N1C(=O)OCc1ccccc1`, the Potency is reported as inconclusive: 39.8 µM [activator, single point]. `CCCc1ccc(-c2cc(NC(=O)CSc3n[nH]c(N)n3)n(-c3ccccc3)n2)cc1` was tested, and the Potency was inconclusive: 39.8 µM [activator, single point]. In the case of `CCOC(=O)c1oc2ccc(S(=O)(=O)Nc3ccc4c(c3)n(C)c(=O)n4C)cc2c1C`, the Potency is reported as inconclusive: 39.8 µM [activator, single point]. `CN(Cc1ccc(F)cc1)S(=O)(=O)c1nnc(NC(=O)c2ccc(F)cc2)s1` was tested, and the Potency was active: 15.8 µM. In the case of `O=C(Nc1ccccc1Cl)C1CCN(c2nc3ccccc3[nH]2)CC1`, the max response, negative = inhibition is reported as inactive: -9.47%. With `Cc1ccc(Cl)cc1N1CCN(C(=O)c2cc(S(=O)(=O)N3CCCCCC3)cn2C)CC1` the Potency was inconclusive: 25.1 µM [activator, single point]. In the case of `CCOC(=O)c1ccccc1NC(=O)c1sc2ccccc2c1Cl`, the max response, negative = inhibition is reported as inactive: 4.55%. `CCOCCCNC(=O)CN1C(=O)/C(=C/c2ccccc2)Sc2ccccc21` was tested, and the Potency was inconclusive: 39.8 µM [activator, single point]. In the case of `COc1ccc(Cn2ccnc2SCC(=O)Nc2cc(C(F)(F)F)ccc2Cl)cc1`, the max response, negative = inhibition is reported as inactive: 4.79%. In the case of `COc1cccc(Nc2sc(C(=O)c3ccc(F)cc3)c(N)c2C(=O)NCc2ccc(C)cc2)c1`, the Potency is reported as inconclusive: 20 µM [inhibitor, partial curve, poor fit]. With `CCOc1ccc2cc(C#N)c(SCC(=O)NC(C)CC)nc2c1` (stereo not given) the Potency was active: 12.6 µM. In the case of `CN(C)c1ccc(CC(=O)c2nc3ccccc3s2)cc1`, the Potency is reported as active: 20 µM. `O=C(c1cccs1)c1cn(Cc2ccccc2Cl)c2ccccc12` was tested, and the max response, negative = inhibition was inactive: -22.3%. In the case of `Cc1cc2c(cc1C)CSC(c1ccc3ccccc3c1O)SC2`, the Potency is reported as active: 25.1 µM. `Cc1no[n+]([O-])c1COc1ccc(/C=C2\NC(=S)NC2=O)cc1` was tested, and the Potency was active: 31.6 µM. In the case of `Cc1nn2c(COc3ccc(NC(=O)c4ccccc4Cl)cc3)nnc2c2ccccc12`, the Potency is reported as inconclusive: 31.6 µM [activator, single point]. `COCCCN(C(=O)c1ccco1)c1nc(-c2cc(OC)ccc2OC)cs1` was tested, and the Potency was inconclusive: 31.6 µM [activator, single point]. In the case of `CCC(Sc1nc2ccccc2c2nc(CCc3c(C)n[nH]c3C)nn12)C(=O)Nc1ccc(OC)cc1` (stereo not given), the Potency is reported as inconclusive: 6.31 µM [activator, single point]. With `COc1ccc(CNC(=O)CN(c2ccc(OC)cc2)S(=O)(=O)c2c(C)nn(C)c2C)cc1` the Potency was inconclusive: 31.6 µM [activator, single point]. `COC(=O)c1c(C)sc(-c2c(-c3ccc4c(c3)OCCO4)[nH]c3[nH]c(=O)[nH]c(=O)c23)c1O` was tested, and the Potency was inconclusive: 39.8 µM [activator, single point]. In the case of `O=S(=O)(c1ccc(Br)cc1)c1nnn2c1nc(Nc1cccc(C(F)(F)F)c1)c1sccc12`, the max response, negative = inhibition is reported as inactive: 9.62%. In the case of `CCOc1ccc(-c2cc3nc(C4CCN(C(=O)OC(C)(C)C)CC4)c(C(=O)Nc4ccc(C)cc4Cl)cn3n2)cc1`, the Potency is reported as inconclusive: 3.16 µM [inhibitor, partial curve]. For `CCOc1ccccc1OCC(=O)Nc1ccc(N2CCCCC2)cc1`, the max response, negative = inhibition was inactive: -4.81%. For `Cc1cc(C)c2c(n1)nn1c(C)c(CCC(=O)NCc3ccccc3Cl)c(C)nc21`, the max response, negative = inhibition was inactive: -7.78%. In the case of `CCOC(=O)c1oc2cccc(O)c2c1CN(Cc1ccccc1)C(C)=O`, the Potency is reported as inconclusive: 20 µM [activator, single point]. For `COc1cc(/C=C/c2noc(-c3ccccc3O)n2)cc(OC)c1OC`, the Potency was inconclusive: 39.8 µM [inhibitor, single point]. With `CC1(C)CC2CC(C)(CN2C(=O)COC(=O)CNC(=O)c2ccc(Cl)c(Cl)c2)C1` (stereo not given) the Potency was active: 7.94 µM. For `O=c1cc(C(F)(F)F)c2sc(N3CCCCC3)nc2[nH]1`, the Potency was inconclusive: 10 µM [activator, partial curve]. With `Cc1cccc(NC(=O)c2c(NC(=O)c3ccccc3)sc3c2CCCC3)c1` the max response, negative = inhibition was inactive: -5%. `Cc1nc(NC(=S)NC(=O)c2cccs2)ccc1Br` was tested, and the Potency was inconclusive: 39.8 µM [inhibitor, single point]. With `COc1ccc(-c2cc3nc[nH]c(=O)c3s2)cc1` the Potency was inconclusive: 39.8 µM [activator, single point]. `N=c1oc2ccccc2cc1-c1nc(-c2ccc(Cl)cc2)cs1` was tested, and the Potency was inconclusive: 39.8 µM [inhibitor, single point]. In the case of `Cc1ccc(NC(=O)NCCOCCn2c(=O)oc3ccccc32)cc1F`, the max response, negative = inhibition is reported as inactive: -3.5%. With `Nc1nonc1-n1nnc(C(=O)N/N=C/c2cc(Br)ccc2O)c1CSC1=NCCS1` the Potency was inconclusive: 31.6 µM [inhibitor, single point]. With `C=CCN(c1ccccc1Cl)S(=O)(=O)c1cccc(C(=O)NCCc2ccc(OC)cc2)c1` the Potency was inconclusive: 25.1 µM [activator, single point]. `CCOc1cc(/C=N/n2cnnc2)cc(Br)c1O` was tested, and the Potency was inconclusive: 15.8 µM [inhibitor, partial curve, poor fit]. With `COc1ccccc1CCNC(=O)Cc1c(C)c2cc3c(C(C)(C)C)coc3c(C)c2oc1=O` the max response, negative = inhibition was inactive: -18.5%. In the case of `COc1cccc(CNC(=O)c2ccc(S(=O)(=O)N3CCCC3)cc2)c1`, the max response, negative = inhibition is reported as inactive: 0.791%. In the case of `COc1ccccc1NC(=O)CN1C(=O)CC(c2ccc(C)c(C)c2)=Nc2ccccc21`, the max response, negative = inhibition is reported as inactive: -16.6%. For `COC(=O)[C@@H]1CC[C@H](C)[C@@H](c2ccc(C)cc2)N1C(=O)c1ccc(/C=N/OCC[C@@H]2C=C[C@H](OC(C)=O)[C@@H](COC(C)=O)O2)cc1`, the Potency was inconclusive: 5.01 µM [activator, full curve]. With `CN1CSC2=C(C#N)C(c3cccc(OCc4ccccc4)c3)CC(=O)N2C1` (stereo not given) the max response, negative = inhibition was inactive: 5.58%. For `CCOC(=O)c1[nH]c2cc(OC)c(OC)cc2c1NC(=O)CN1CCN(c2ccc(OC)cc2)C(C)C1` (stereo not given), the Potency was inconclusive: 31.6 µM [activator, partial curve]. In the case of `COc1cccc(N2CCN(C(=O)c3cc4c(=O)n(Cc5cccs5)ccc4nc3C)CC2)c1`, the Potency is reported as inconclusive: 31.6 µM [activator, single point]. In the case of `CC(C)NC(=S)N/N=C1\CCCCC1C1CCCCC1` (stereo not given), the max response, negative = inhibition is reported as inactive: -0.488%. `O=C(Nc1cccc2cccnc12)c1cccc2ccccc12` was tested, and the max response, negative = inhibition was inactive: -2.29% and inactive: -6.59%. For `CCCn1cc(S(=O)(=O)c2ccc(C)cc2)c(=O)c2cc(OC)c(OC)cc21`, the Potency was inconclusive: 39.8 µM [activator, single point]. For `C=CCn1c(=NC(=O)c2ccc(S(=O)(=O)N3CCCc4ccccc43)cc2)sc2cc(S(N)(=O)=O)ccc21`, the Potency was inconclusive: 10 µM [inhibitor, partial curve]. `Cc1ccc(NC(=O)c2c(C(=O)Nc3ccccc3)sc3nc(C)cc(=O)n23)c(C)c1` was tested, and the Potency was inconclusive: 31.6 µM [activator, single point]. For `COc1ccc(/C=C2\SC(=O)N(CCC(=O)Nc3ccccc3)C2=O)cc1OC`, the Potency was inconclusive: 31.6 µM [inhibitor, single point]. In the case of `Cc1cc(C)nc(SCc2cc(=O)c(OC(=O)c3ccco3)co2)n1`, the Potency is reported as inconclusive: 20 µM [inhibitor, single point]. With `CC(=O)NN=C1CCC(c2ccccc2)CC1` (stereo not given) the max response, negative = inhibition was inactive: 3.59%. In the case of `O=C(Nc1ccc2c(c1)OCCO2)c1cccc2nc3ccccc3nc12`, the Potency is reported as inconclusive: 39.8 µM [activator, single point]. For `O=C(Nc1ccccc1-c1nnn(CC(=O)N2CCCc3ccccc32)n1)c1ccc(Cl)cc1`, the Potency was active: 31.6 µM. With `CCCCCSc1nc(N2CCOCC2)c2c(c1C#N)CC(C)(C)OC2` the Potency was inconclusive: 31.6 µM [activator, single point]. With `Cc1cccc(Cn2cc(S(=O)(=O)c3ccc(Cl)cc3)c(=O)c3cc4c(cc32)OCO4)c1` the Potency was inconclusive: 31.6 µM [inhibitor, single point]. For `CC(C)(C)c1ccc(S(=O)(=O)NC(Cc2ccccc2)C(=O)O)cc1` (stereo not given), the Potency was inconclusive: 25.1 µM [activator, single point]. `Cc1nc(N2CCN(S(=O)(=O)c3ccccc3)CC2)c2cc(-c3ccccc3)sc2n1` was tested, and the Potency was inconclusive: 39.8 µM [inhibitor, single point]. For `COc1cccc(/C=N/NC(=O)c2ccc(=O)n(C)c2)c1O`, the max response, negative = inhibition was inactive: -12.2%. For `Cc1cc2ccccc2n1CCNC(=O)c1ccc(S(=O)(=O)N2CCCCC2)cc1`, the Potency was inconclusive: 31.6 µM [inhibitor, single point]. For `CCn1c2ccccc2c2cc(NC(=O)C(C)Oc3ccccc3)ccc21` (stereo not given), the Potency was inconclusive: 31.6 µM [inhibitor, single point]. For `COc1ccc(-c2cc(C(=O)OC3CCOC3=O)c3ccccc3n2)cc1OC` (stereo not given), the Potency was inconclusive: 39.8 µM [activator, single point]. For `O=C(Cc1ccccc1)NC(NC(=S)Nc1cc(Cl)ccc1Cl)C(Cl)(Cl)Cl` (stereo not given), the Potency was inconclusive: 25.1 µM [inhibitor, single point]. For `CCOC(=O)N1CCN(c2nc3ccccc3nc2C(C#N)S(=O)(=O)c2ccc(C)cc2)CC1` (stereo not given), the Potency was inconclusive: 31.6 µM [activator, single point]. With `COc1cc(-c2nc(S(=O)(=O)c3ccccc3)c(N3CCOCC3)o2)cc(OC)c1OC` the Potency was inconclusive: 7.94 µM [activator, single point].
